# The supplement of paper PMC3334620
# Over roughly 33,000 sequences, “E-score (-0.5 to 0.5)” has its median near -0.021; the highest 2% begin near 0.32. The list shows a part of the results.
# Biological target: T1, Zap1 (UniProt P47043)
# T1 sequence: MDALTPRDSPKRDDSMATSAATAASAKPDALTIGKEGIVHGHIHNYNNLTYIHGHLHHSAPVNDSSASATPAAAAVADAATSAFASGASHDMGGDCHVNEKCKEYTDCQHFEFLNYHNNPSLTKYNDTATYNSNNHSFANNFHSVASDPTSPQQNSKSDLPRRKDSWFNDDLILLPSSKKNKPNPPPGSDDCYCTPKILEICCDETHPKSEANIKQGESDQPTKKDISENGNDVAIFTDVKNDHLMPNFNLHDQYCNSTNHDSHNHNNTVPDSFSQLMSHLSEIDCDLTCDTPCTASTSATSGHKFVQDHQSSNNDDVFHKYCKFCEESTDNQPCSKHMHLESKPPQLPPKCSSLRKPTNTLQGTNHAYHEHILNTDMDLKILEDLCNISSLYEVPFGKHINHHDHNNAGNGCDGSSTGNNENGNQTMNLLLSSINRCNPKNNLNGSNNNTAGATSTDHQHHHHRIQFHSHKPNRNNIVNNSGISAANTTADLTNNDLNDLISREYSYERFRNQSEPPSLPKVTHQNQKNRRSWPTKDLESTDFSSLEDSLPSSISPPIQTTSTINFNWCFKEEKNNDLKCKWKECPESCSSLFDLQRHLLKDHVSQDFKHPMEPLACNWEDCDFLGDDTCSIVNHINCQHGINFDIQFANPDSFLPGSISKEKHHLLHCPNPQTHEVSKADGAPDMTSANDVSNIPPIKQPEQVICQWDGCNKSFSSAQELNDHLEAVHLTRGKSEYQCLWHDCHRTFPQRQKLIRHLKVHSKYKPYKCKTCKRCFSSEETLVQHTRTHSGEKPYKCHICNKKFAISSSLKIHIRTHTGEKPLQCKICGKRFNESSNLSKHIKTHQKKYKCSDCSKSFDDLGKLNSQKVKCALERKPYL
# Assay: PBM E-score (8-mer binding enrichment) (E-score (-0.5 to 0.5)); higher = stronger / more preferred TF binding; most listed sequences are background and not binding sites
# Conditions: protein concentration: 200 nM; construct: GST-full length
# Method: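 Universal 'all 10-mer' protein binding microarrays (Agilent AMADID 015681) probed with GST-tagged S. cerevisiae TFs (full-length or DBD) made by in vitro transcription/translation (PURExpress), about 100-200 nM. Bound TF was detected with fluorescent anti-GST. Each ungapped 8-mer (which stands for itself and its reverse complement) is scored by the PBM enrichment score (E-score), a modified Wilcoxon-Mann-Whitney statistic from -0.5 to +0.5, computed with the Universal PBM Analysis Suite. Scale: above 0.35 generally sequence-specific binding.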
row,Sequence,PBM E-score
1,GGCATGCA,-0.0897
2,GTTTACAA,0.23
3,TCCGCCAA,-0.084
4,CTCATTAC,0.175
5,ACTTGCTG,-0.0261
6,ACGGCCTC,0.0852
7,ATTATACG,0.0915
8,ATGGACCC,0.249
9,AACCCTAC,0.357
10,GGCTCGTA,0.0967
11,TACTACGA,0.18
12,TAACCCGA,0.345
13,CCAGACAA,0.0344
14,TAGGGTGA,0.299
15,TCCTCTAA,-0.0176
16,CTACCCTA,0.291
17,CTGAAGAC,-0.098
18,CCGAGTAA,0.0791
19,GGTCACAC,0.294
20,ACGACTTA,-0.208
21,GACTGCAC,-0.117
22,AAGGGATC,0.0637
23,ATCCCGTA,0.0415
24,CGGAGATA,0.0308
25,AGGAGCTA,-0.404

row,Sequence,PBM E-score
1,AGTCCAGA,0.136
2,CAGCACCG,-0.0742
3,ACAAATAC,0.0714
4,CGTCTCCA,0.0297
5,ATCGGGAC,-0.132
6,CTGTCCTA,-0.16
7,AACAACCC,0.408
8,GATTCGTA,-0.0926
9,AATTCTGG,0.0624
10,CATCGAAG,-0.0537
11,ATTCGTGC,0.0351
12,ACTCTAAG,-0.0542
13,CGATTGCA,0.0544
14,ACTAGTCG,-0.193
15,CCCCTTAG,0.107
16,AAAGGCTT,-0.228
17,GATTCTTA,0.177
18,TGATAGAA,0.0749
19,AATGTTGA,-0.106
20,AAGTGCTG,-0.208
21,ACTCATTC,-0.0523
22,GTATATTA,0.101
23,AGGTCTAC,-0.0448
24,CGCTATCC,-0.0484
25,TCTCCAAA,0.0387

row,Sequence,PBM E-score
1,GCACTCGA,-0.196
2,CGAATAGA,-0.00013
3,CCTTGGCG,-0.0237
4,ACCAGTTC,-0.00783
5,CATAAGCG,-0.165
6,ACTTATTA,0.00789
7,GAGCTTAA,-0.0983
8,AGGAGTAA,0.0217
9,CTTCCACC,-0.244
10,CCGGTACG,-0.136
11,ATCAGGGA,-0.178
12,AAGTTGGC,-0.122
13,ATGCTATG,-0.0819
14,GCTGTTCC,-0.195
15,GTCCGTAA,0.175
16,ATCTAGTA,0.0981
17,CCGGAGAA,-0.127
18,CGTGTGAC,-0.0152
19,GCCATCCA,-0.197
20,AGAGGGCA,-0.221
21,GCGCCCAC,-0.0445
22,ACGAAACT,0.0627
23,ATATACGA,-0.138
24,ATTCGTCC,0.133
25,CGCAGCGC,-0.229

row,Sequence,PBM E-score
1,AAAGTGAG,0.0903
2,ATAGCGAC,-0.0934
3,ACATGTCT,-0.0899
4,AAGCAACG,-0.109
5,AACCTAGA,0.289
6,GAACCGCA,0.149
7,ATGACTGA,-0.0766
8,CTAGTGGA,-0.0431
9,AATGCTAC,0.00654
10,CGCATTCA,-0.0717
11,GTCTCTTA,-0.0277
12,CGCATCAG,0.0143
13,CCGCAACA,0.162
14,CCGTTCTA,0.111
15,CGCGCCAA,0.0785
16,TGAAGGAA,-0.0768
17,ATATCACC,0.0316
18,ACGGGTCG,0.116
19,ATTTAATG,0.176
20,ACATTGGA,-0.106
21,ATGTAGCC,-0.131
22,ACGAAGCT,-0.141
23,AGAGCCGC,-0.169
24,CCGAGCCG,-0.165
25,ATCAACCA,0.0761

row,Sequence,PBM E-score
1,CCGGTTAC,0.398
2,GGTCCTAC,-0.105
3,ATGATCAA,0.241
4,ATTCTTGA,0.0771
5,ATTGCCCG,-0.208
6,GCTGATCA,-0.0643
7,TATTGAAA,0.201
8,AGCGCTGA,-0.156
9,CATGGCAG,-0.0211
10,AATGGGGA,-0.0221
11,GTCACCAA,0.0469
12,TGGGGGAA,-0.399
13,ACGCGCTG,-0.148
14,CCACGGTA,0.0158
15,GACACAAC,0.161
16,AAACAGTA,-0.0723
17,GCATATGA,0.0416
18,AAGAGTTA,0.121
19,AATGGGCG,-0.204
20,CGAGCCTA,-0.191
21,CCTTTAGC,0.0766
22,CATACCGC,0.0183
23,GCCTCCAC,-0.239
24,AGCTCGTG,-0.00259
25,ACCGATCC,-0.145

row,Sequence,PBM E-score
1,AAACGTTT,0.0998
2,CTGCACGA,0.123
3,CTGTGCCC,-0.171
4,AGTGTTCA,0.00139
5,GAGGAGAC,-0.324
6,ACCCGTCC,-0.0889
7,GAAACCAA,0.271
8,AAGCGCGC,0.0553
9,ACGTGCTG,0.0361
10,TCCGGGCA,-0.222
11,CCGAGTTC,0.0438
12,TCCTAGAA,-0.0357
13,ATAGGGCC,-0.158
14,CCTCGATC,0.0275
15,CGATACGC,-0.106
16,AATATGGC,-0.0625
17,AGTGCACA,-0.0937
18,CAAAATGC,0.0356
19,AGCCTGTC,-0.221
20,GCTATGTA,-0.116
21,CCATGAGA,0.094
22,GTGGGATA,0.0249
23,ATCAGTGG,0.0702
24,ACATTGGG,0.0155
25,TACTTAGA,0.113

row,Sequence,PBM E-score
1,ATTCTACA,0.104
2,AAATTGGG,-0.00439
3,AGAGGGCC,-0.128
4,ACCAGGCA,-0.12
5,CTAACGCC,-0.117
6,ACGAATCC,-0.0963
7,TACAACCA,0.319
8,CTTTTATA,-0.00494
9,AGCTCTCC,-0.263
10,CCGCAGTC,-0.0761
11,CCTTACAG,0.221
12,TTGATCAA,0.0851
13,ACGGACGA,0.0125
14,CCAAGCCC,-0.226
15,CAGTAACA,-0.0862
16,GTTGCGGA,0.105
17,ATGTTTTA,0.171
18,AGCATCTG,-0.0599
19,TAACCTGA,0.317
20,AGAGAGCC,-0.245
21,CAATGAAC,0.00263
22,ACACCACG,0.0192
